# According to the supplement of paper PMC12217912:
# The list shows a part of the results. Sequences were assembled here from the parent chain. Values near 0.05 are background.
# B1: TEV protease; numbered along this chain (parent)
# chain: MGESLFKGPRDYNPISSSICHLTNESDGHTTSLYGIGFGPFIITNKHLFRRNNGTLVVQSLHGVFKVKDTTTLQQHLVDGRDMIIIRMPKDFPPFPQKLKFREPQREERICLVTTNFQTKSMSSMVSDTSCTFPSGDGIFWKHWIQTKDGQCGSPLVSTRDGFIVGIHSASNFTNTNNYFTSVPKNFMELLTNQEAQQWVSGWRLNADSVLWGGHKVFMVKPEEPFQPVKEATQL
# Variants of: B1
# Experiment: raw area under fraction-flipped curve 0-4 h after induction (AUC4h, not background-subtracted), DNA-recorder readout of cleavage of the substrate (dimensionless); higher = more cleavage of the substrate by the protease variant
# Conditions: temperature: 34 °C; time window: 0-4 h after rhamnose induction
# Experimental: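 In vivo DNA recorder in E. coli TOP10(DE3) ΔrhaA at 34 °C. Each TEVp single-site mutant (parent TEVp 0) is paired with a single-site variant of the 7-mer TEVs (canonical ENLYFQ|S). The substrate sits between flexible linkers in a Bxb1-sfGFP-TEVs-SsrA fusion, so cleavage stabilises Bxb1 and speeds flipping of a recombination array, read by NGS. The value is the raw area under the fraction-flipped curve over 0-4 h after rhamnose induction (AUC4h), with ≥20 reads per time point. It is not background-subtracted; inactive controls average about 0.047.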
# 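Note: Bxb1 expression induced with 0.2% (w/v) L-rhamnose at OD600 near 0.5, cultures sampled hourly, flipped fraction per protease–substrate barcode pair counted by paired-end Illumina sequencing.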
Variant,area with substrate ENLYDQS,area with substrate ENLYEQS,area with substrate ENLYHQS,area with substrate ENLYIQS,area with substrate ENLYKQS,area with substrate ENLYLQS,area with substrate ENLYMQS,area with substrate ENLYNQS,area with substrate ENLYQQS,area with substrate ENLYSQS,area with substrate ENLYTQS,area with substrate ENLYVQS,area with substrate ENLYRQS,area with substrate ENLYCQS,area with substrate ENLYGQS,area with substrate ENLYWQS,area with substrate ENLYPQS,area with substrate ENLYYQS
L77Q,0.0649,0.0779,0.0617,0.0716,0.0622,0.0525,0.0585,0.0665,0.0638,0.052,0.063,0.0645,–,–,–,–,–,–
D69Y,0.052,–,0.0726,–,–,–,0.0759,–,–,–,–,–,0.0623,–,–,–,–,–
W203M,–,0.0635,0.0567,0.0683,0.0571,–,–,0.0554,–,–,–,0.0723,–,0.0586,0.0498,0.0547,–,–
K230H,0.0465,0.0662,–,–,0.0627,0.071,0.0795,0.075,0.0757,0.0774,–,0.106,0.0594,0.0959,0.0644,0.1,0.0657,–
P222K,0.0437,0.0557,0.0682,0.121,0.0675,–,0.0628,0.0506,–,0.118,–,–,0.0507,0.0776,0.0666,–,0.0705,0.0622
R50I,0.0472,0.0624,–,–,–,–,0.102,–,0.0517,0.0947,–,0.135,0.0717,–,–,0.134,–,–
K98D,0.0619,0.0794,0.074,0.133,0.064,–,0.0989,0.0566,0.0595,0.0873,0.0769,0.128,–,–,0.0582,0.0859,0.0772,0.0682
N175I,–,0.0544,0.0567,0.0612,–,0.0473,0.0594,0.0593,0.0676,0.0672,0.056,0.0571,0.0652,0.0742,0.0681,0.0702,0.06,0.0665
N175H,–,0.0754,–,–,0.055,–,–,0.0781,–,–,–,0.0868,–,0.0746,–,0.059,–,0.0683
E103R,0.0463,0.0629,0.0582,0.101,0.0601,–,0.105,0.0694,–,0.0641,–,0.102,0.0568,–,0.0673,–,0.0566,–
A207W,0.0541,0.0481,0.0628,0.0895,0.0472,–,0.0813,0.0442,0.0654,–,–,–,0.0894,0.0721,0.0527,–,–,0.0587
G214R,0.0656,0.0487,0.0635,0.0681,0.0445,0.0523,0.0567,0.0628,0.0647,0.0572,0.097,0.0843,0.0601,0.0634,0.061,0.0595,0.069,0.0687
T23D,0.0578,0.0678,0.0698,0.0793,0.0423,–,0.0466,0.0669,0.0729,0.0466,–,0.0901,0.0589,–,0.0743,0.0818,0.0649,0.0649
S169P,0.0559,0.0628,0.0508,0.0617,0.0624,–,0.0617,0.0958,0.0479,–,0.0576,0.059,0.06,0.059,–,–,0.0487,0.0653
